{"source": "the supplement of paper PMC3334620", "note": "In all, about 33,000 sequences were measured (“E-score (-0.5 to 0.5)”: median about -0.01, highest 2% from about 0.26 on). The list shows a part of the results.", "data": [{"biological_target": "Ste12 (UniProt P13574)", "test": "PBM E-score (8-mer binding enrichment) (E-score (-0.5 to 0.5)); higher = stronger / more preferred TF binding; most listed sequences are background and not binding sites", "conditions": "protein concentration: 200 nM; construct: GST-DNA-binding domain", "method": "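Universal 'all 10-mer' protein binding microarrays (Agilent AMADID 015681) probed with GST-tagged S. cerevisiae TFs (full-length or DBD) made by in vitro transcription/translation (PURExpress), about 100-200 nM. Bound TF was detected with fluorescent anti-GST. Each ungapped 8-mer (which stands for itself and its reverse complement) is scored by the PBM enrichment score (E-score), a modified Wilcoxon-Mann-Whitney statistic from -0.5 to +0.5, computed with the Universal PBM Analysis Suite. Scale: above 0.35 generally sequence-specific binding.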", "values": [{"sequence": "AGTCCGCG", "PBM E-score": -0.148}, {"sequence": "AAGGTCAG", "PBM E-score": -0.104}, {"sequence": "CGGGTTAG", "PBM E-score": -0.209}, {"sequence": "AATTGAGC", "PBM E-score": -0.0246}, {"sequence": "CCAACTCC", "PBM E-score": 0.171}, {"sequence": "CCCACGAC", "PBM E-score": -0.211}, {"sequence": "TCGGGGAA", "PBM E-score": 0.0651}, {"sequence": "AAGCAAAC", "PBM E-score": 0.129}, {"sequence": "AAGCTTCT", "PBM E-score": -0.128}, {"sequence": "AGTTTTCA", "PBM E-score": 0.0833}, {"sequence": "AGGATGGG", "PBM E-score": -0.0868}, {"sequence": "CACAAGAA", "PBM E-score": 0.219}, {"sequence": "ATAGTGTA", "PBM E-score": 0.207}, {"sequence": "GGGATACC", "PBM E-score": -0.0812}, {"sequence": "TGTCTGAA", "PBM E-score": 0.251}, {"sequence": "GATACCAC", "PBM E-score": 0.0479}, {"sequence": "ACGAGCTC", "PBM E-score": 0.00975}, {"sequence": "CATAGCAG", "PBM E-score": -0.255}, {"sequence": "GGTCGACA", "PBM E-score": -0.215}, {"sequence": "AGATATAG", "PBM E-score": 0.176}, {"sequence": "AGGTCTAG", "PBM E-score": -0.203}, {"sequence": "ACGCGAGT", "PBM E-score": 0.103}, {"sequence": "AACGTACC", "PBM E-score": -0.175}, {"sequence": "AGCAAGGG", "PBM E-score": -0.041}, {"sequence": "GAGCCGGA", "PBM E-score": -0.0206}, {"sequence": "AAAGAACG", "PBM E-score": 0.00966}, {"sequence": "CTTTGTAA", "PBM E-score": 0.152}, {"sequence": "ACGGACAG", "PBM E-score": -0.249}, {"sequence": "ACCATTCC", "PBM E-score": 0.0233}, {"sequence": "CAATGAAA", "PBM E-score": 0.258}, {"sequence": "AACTCAGC", "PBM E-score": 0.109}, {"sequence": "CGTAGGGA", "PBM E-score": -0.207}, {"sequence": "AACATTGC", "PBM E-score": 0.0224}, {"sequence": "CCTCCCCA", "PBM E-score": 0.329}, {"sequence": "AGTAACCG", "PBM E-score": 0.0632}, {"sequence": "CGTTGGAA", "PBM E-score": 0.0184}, {"sequence": "CTCAGAGA", "PBM E-score": 0.0726}, {"sequence": "TGGTTAAA", "PBM E-score": 0.216}, {"sequence": "ACTTTCCA", "PBM E-score": 0.12}, {"sequence": "CATTTAGA", "PBM E-score": 0.149}, {"sequence": "TATGCATA", "PBM E-score": -0.091}, {"sequence": "GTCATCCA", "PBM E-score": -0.0274}, {"sequence": "ATTCGGCC", "PBM E-score": 0.0174}, {"sequence": "GGGATTAC", "PBM E-score": -0.141}, {"sequence": "GAAGTGCC", "PBM E-score": -0.0365}, {"sequence": "AATGGCCG", "PBM E-score": -0.19}, {"sequence": "ATATCGTG", "PBM E-score": -0.106}, {"sequence": "AAGGAACA", "PBM E-score": -0.199}, {"sequence": "CTCTCGTC", "PBM E-score": -0.0536}, {"sequence": "CGCACATC", "PBM E-score": -0.0717}, {"sequence": "ATTGGGAC", "PBM E-score": 0.176}, {"sequence": "ACACTGCC", "PBM E-score": 0.0443}, {"sequence": "CTCACGGA", "PBM E-score": -0.226}, {"sequence": "ATTGTATC", "PBM E-score": 0.132}, {"sequence": "ATCAACCG", "PBM E-score": -0.0497}, {"sequence": "CCCCAGGC", "PBM E-score": -0.139}, {"sequence": "ACAGAGGG", "PBM E-score": -0.0853}, {"sequence": "CCTCTACC", "PBM E-score": -0.0701}, {"sequence": "ACCTTTCT", "PBM E-score": 0.0213}, {"sequence": "ATAAATGC", "PBM E-score": 0.136}, {"sequence": "CTTGTGCC", "PBM E-score": 0.00807}, {"sequence": "ATAATTAT", "PBM E-score": 0.195}, {"sequence": "ATGCTTTG", "PBM E-score": -0.0044}, {"sequence": "AGGACCCT", "PBM E-score": -0.182}, {"sequence": "CGTAAAAA", "PBM E-score": 0.126}, {"sequence": "AGACACAA", "PBM E-score": 0.0527}, {"sequence": "GTGAATAA", "PBM E-score": 0.12}, {"sequence": "AGTATGGA", "PBM E-score": 0.0771}, {"sequence": "AGCCCGTG", "PBM E-score": -0.193}, {"sequence": "CACGATGA", "PBM E-score": 0.0569}, {"sequence": "ACGTACGA", "PBM E-score": -0.0743}, {"sequence": "ATGGCGAG", "PBM E-score": -0.0172}, {"sequence": "CAGCCGTA", "PBM E-score": -0.132}, {"sequence": "ACCCTCCT", "PBM E-score": -0.00559}, {"sequence": "GATTGAGC", "PBM E-score": 0.00535}, {"sequence": "CAGTAGCA", "PBM E-score": -0.104}, {"sequence": "AATCAGGC", "PBM E-score": 0.0463}, {"sequence": "GTTAAAGA", "PBM E-score": 0.0582}, {"sequence": "ATACCAGA", "PBM E-score": 0.0337}, {"sequence": "ACCAGACG", "PBM E-score": -0.174}, {"sequence": "GGTGCAAA", "PBM E-score": -0.05}, {"sequence": "GGGCCGGA", "PBM E-score": -0.0748}, {"sequence": "AACCGCTG", "PBM E-score": -0.0535}, {"sequence": "AATACCAG", "PBM E-score": 0.0671}, {"sequence": "CCAAACAC", "PBM E-score": 0.137}, {"sequence": "GCGTGGGA", "PBM E-score": -0.173}, {"sequence": "AAGACCTG", "PBM E-score": -0.147}, {"sequence": "AAAGCGAG", "PBM E-score": 0.175}, {"sequence": "GCATTCTA", "PBM E-score": 0.0698}, {"sequence": "CGAAAGGA", "PBM E-score": 0.126}, {"sequence": "AAAGCACG", "PBM E-score": 0.0339}, {"sequence": "CACCCCCA", "PBM E-score": -0.27}, {"sequence": "GCTCAACC", "PBM E-score": -0.0532}, {"sequence": "GAAATTGA", "PBM E-score": 0.12}]}]}
